# Screen size: about 280,000 compounds; about 100 (0.036%) were called active. The inconclusive results got no clear call from the source; some entries with a clear call stand among them for comparison. The call rests on the fitted dose curve; in most records, active means well fitted inhibition curve with a large enough effect in the signal ratio, with a control signal flat (not every such curve was filed as active); inconclusive means small, poorly fitted or top-dose-only effect, or effect the other way, or a change in a side signal; inactive means no such curve, though single readings can be large or run the other way; the % refers to the signal ratio. Potencies of inconclusive entries are doubtful fits and often do not repeat. A note “side channel” means that the fit belongs to a control or component signal, not to the main read-out.
# Biological target: Muscleblind-like protein 1 (Homo sapiens) (UniProt Q9NR56)
# Assay: qHTS Assay for Inhibitors of MBNL1-poly(CUG) RNA binding
# Settings: TR-FRET MBNL1-His/biotin-(CUG)12 binding, 665/545 ratio; activity change, negative = inhibition: at 57.5 µM (top of the series)
# Outline: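 Compounds (final 92 nM to 58 uM) are added to His-tagged MBNL1 and biotin-(CUG)12, then terbium anti-His antibody and streptavidin-XL665 (5 nM final). After 60 min at room temperature, the 665/545 nm ratio is read.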
# On the % scale 0 is the no-effect control and ±100 the full control effect; potency means the concentration at half of the fitted maximal effect; tags describe the fitted curve by direction and shape or compound fluorescence and quenching.
# Sequence of UniProt Q9NR56 (Q9NR56 whole entry, looked up): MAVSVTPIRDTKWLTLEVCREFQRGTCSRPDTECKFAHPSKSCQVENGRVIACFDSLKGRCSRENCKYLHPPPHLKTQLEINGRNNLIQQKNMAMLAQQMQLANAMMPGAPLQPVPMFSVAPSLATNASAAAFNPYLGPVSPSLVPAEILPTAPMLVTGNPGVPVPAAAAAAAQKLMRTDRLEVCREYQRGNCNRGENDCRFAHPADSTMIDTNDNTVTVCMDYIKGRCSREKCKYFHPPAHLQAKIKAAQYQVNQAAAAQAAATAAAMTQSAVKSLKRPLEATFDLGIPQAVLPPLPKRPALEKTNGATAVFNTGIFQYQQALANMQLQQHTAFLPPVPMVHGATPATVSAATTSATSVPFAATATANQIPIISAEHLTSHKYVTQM
Compound,Potency,"activity change, negative = inhibition"
O=C(NC(c1ccccc1)c1ccccn1)c1cccc([N+](=O)[O-])c1 (stereo not given),"inconclusive: 15.8 µM [quencher, side channel, partial curve]",
Cc1ccc(NC(=O)NN2CCN(C)CC2)cc1C,,inactive: -3.77%
COc1cc(/C=C2\NC(=S)N(C)C2=O)ccc1O,"inconclusive: 15.8 µM [quencher, side channel, partial curve]",
CN1C(N)=NC(=O)/C1=C/c1ccc(OC(F)(F)F)cc1,"inconclusive: 12.6 µM [quencher, side channel, partial curve]",
CCN(c1ccc(OC)cc1)S(=O)(=O)c1ccc(-c2cc(C)no2)s1,"inconclusive: 28.2 µM [quencher, side channel, partial curve]",
CSc1nc(O)c(N=Nc2ccc(F)cc2F)c(=O)[nH]1,"inconclusive: 14.1 µM [quencher, side channel, partial curve]",
CCOC(=O)C1CCN(C(=O)c2c(C)oc3c2C(=O)c2ccccc2C3=O)CC1,"inconclusive: 5.01 µM [quencher, side channel, partial curve]",
COc1cc(C(=O)N/C(=C\c2cn(C)c3ccccc23)C(=O)NCCN2CCOCC2)cc(OC)c1OC,"inconclusive: 31.6 µM [quencher, side channel, single point]",
O=Cc1ccc(N2CCCC2)o1,"inconclusive: 22.4 µM [quencher, side channel, single point]",
O=C(Nn1c(-c2ccncc2)nc2ccccc2c1=O)c1ccc([N+](=O)[O-])cc1Cl,"inconclusive: 15.8 µM [quencher, side channel, partial curve]",
CC(C)C(OC(=O)c1cccc(S(=O)(=O)NCC(F)(F)F)c1)C(=O)NC(N)=O (stereo not given),,inactive: -3.91%
Cc1nnc(SCC(=O)c2c(N)n(C)c(=O)n(C)c2=O)[nH]c1=O,,inactive: 0.396%
Cc1cc(-c2ccccc2)nc2oc(C(=O)NN)c(N)c12,"inconclusive: 15.8 µM [quencher, side channel, partial curve]",
CCOc1cc(/C=C(/C#N)C(=O)Nc2ccc(O)cc2)cc(Br)c1O,"inconclusive: 31.6 µM [quencher, side channel, single point]",
CC(C)CNC(=O)COC(=O)CNC(=O)c1cc(Cl)cc([N+](=O)[O-])c1,"inconclusive: 14.1 µM [quencher, side channel, partial curve]",
CN(C)C1=NC(=O)/C(=C\c2ccccc2)S1,"inconclusive: 28.2 µM [quencher, side channel, single point]",
CCOc1ccccc1C(=O)Nc1cccc2ccccc12,,inactive: 11.5%
COc1cc(C(=S)N2CCOCC2)cc(OC)c1OC(=O)c1ccccc1[N+](=O)[O-],"inconclusive: 31.6 µM [quencher, single point]",
CN(C)c1nc(N)nc(CSc2ncc(Cl)cc2Cl)n1,,inactive: -2.59%
Cc1ccc(NCC(=O)N/N=C/c2cc(O)ccc2[N+](=O)[O-])cc1,"inconclusive: 20 µM [quencher, side channel, partial curve]",

Compound,Potency,"activity change, negative = inhibition"
N#C/C(=N\Nc1ccc(S(=O)(=O)N2CCCCCC2)cc1)C(N)=S,"inconclusive: 10 µM [quencher, side channel, partial curve]",
CC(C)(C)c1ccc(OCCCn2ccnc2)cc1,,inactive: 5.53%
COc1cccc(C2=NOC(C(=O)Nc3ccccc3SC)C2)c1 (stereo not given),,inactive: 3.69%
O=S(=O)(NCCc1csc(-c2cccnc2)n1)c1ccc2c(c1)OCCO2,,inactive: 9.07%
COc1ccccc1N1CC(C(=O)OC(C)C(=O)N2CCCc3ccccc32)CC1=O (stereo not given),,inactive: -0.212%
N/C(=N\OC(=O)c1ccccc1[N+](=O)[O-])c1ccccn1,"inconclusive: 7.94 µM [quencher, side channel, partial curve]",
COc1ccc(C2=NS(=O)(=O)N(C)C(C(=O)NCc3ccco3)=C2)cc1OC,"inconclusive: 14.1 µM [quencher, side channel, partial curve]",
Cc1c(NC(=O)CSc2cccc3cccnc23)c(=O)n(-c2ccccc2)n1C,"inconclusive: 25.1 µM [quencher, side channel, single point]",
COc1cccc(NC(=O)C(=O)N/N=C/c2cc(C)n(-c3ccc(Cl)c(Cl)c3)c2C)c1,,inactive: -14.1%
Nc1nc(SCC(=O)Nc2ccc([N+](=O)[O-])cc2)[nH]c(=O)c1NC(=O)c1ccc(Br)o1,"inconclusive: 28.2 µM [quencher, side channel, single point]",
Cc1nn(-c2ccccc2)c(C)c1/C=N/n1c(-c2ccc(Cl)cc2)n[nH]c1=S,,inactive: -2.55%
COCCn1c(=O)[nH]c2cc(C(=O)NCCN3CCN(c4cccc(Cl)c4)CC3)ccc2c1=O,,inactive: -9.84%
Cc1ccc2nc3c(nc2c1)-c1ccccc1C3=O,"inconclusive: 0.891 µM [quencher, side channel, full curve]",
O=C(/C=C\c1ccc(-c2cccc([N+](=O)[O-])c2)o1)N1CCOCC1,"inconclusive: 14.1 µM [quencher, partial curve]",
CCCC(=O)OCCNc1cc(Sc2nccn2C)c2nonc2c1[N+](=O)[O-],"inconclusive: 12.6 µM [quencher, side channel, partial curve]",
Cc1ccc(C2=NS(=O)(=O)N(C)C(C(=O)NCc3ccco3)=C2)cc1,"inconclusive: 25.1 µM [quencher, single point]",
Cn1cnc([N+](=O)[O-])c1Sc1ncn[nH]1,"inconclusive: 15.8 µM [quencher, side channel, single point]",
CCOC(=O)CSc1nc(C)nc2c1sc1nc(C)c(C(C)=O)c(-c3ccc(OC)cc3)c12,"inconclusive: 35.5 µM [fluorescent, single point]",
Cc1ccc(-n2c(N)c(C(=O)Nc3ccccc3F)sc2=S)cc1C,"inconclusive: 28.2 µM [quencher, side channel, single point]",
Cc1cc([N+](=O)[O-])ccc1NC1CCCC1,"inconclusive: 14.1 µM [quencher, side channel, partial curve]",

# Source: PubChem BioAssay AID2675 (National Center for Advancing Translational Sciences (NCATS), 2010)
